This list was built around the results that the source calls inconclusive (neither active nor inactive); the mix of calls is not that of the screen. For some assays here: A potency beside an inconclusive call is a rough fit, not a confirmed value. Activity calls are given as the source filed them. Calls follow the shape of the dose curve; as a rule, active = well fitted curve in the direction sought with a large enough effect; inconclusive = small, poorly fitted or top-dose-only effect, or another doubt; inactive = no such curve, though single readings can be large; an effect the other way counts as inactive or inconclusive.
Tests used:
[1] = OV-KATE Cancer Cell Toxicity qHTS against the NCATS CANVASS Library (AID 1347345); details: OV-KATE cells viability, CellTiter-Glo luminescence, 72 h
Method in brief: (§1)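 Toxicity is measured over 72 h of compound exposure at 37 degrees C under 5% CO2. Each well holds 1000 cells, pre-incubated for 4 hours before dosing across an 11-point range. CellTiter-Glo luminescence gives viability.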

[2] = HPAF-II Cancer Cell Toxicity qHTS against the NCATS CANVASS Library (AID 1347346); details: HPAF-II viability, CellTiter-Glo ATP luminescence, 72 h; also: nearly all actives have a fitted effect of over 55% in size
Method in brief: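 Luminescence from CellTiter-Glo, added after 72 h compound exposure and a 15 min room-temperature incubation, served as the viability readout. HPAF-II cells (1000/well) received an 11-point concentration series.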

[3] = Panc-1005 Cancer Cell Toxicity qHTS against the NCATS CANVASS Library (AID 1347349); details: Panc-1005 viability, CellTiter-Glo luminescence, 72 h; also: nearly all actives have a fitted effect of over 60% in size
Method in brief: as §1

[4] = A2780 Cisplatin Sensitive Ovarian Cancer Cell Toxicity qHTS against the NCATS CANVASS Library (AID 1347353); details: A2780 ovarian cancer viability, ATPLite luminescence, 72 h; series mostly up to 46.1 µM; also: nearly all actives have a fitted effect of over 60% in size
Method in brief: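 Luminescent ATP content (ATPLite, 10 min at room temperature) served as the read-out after cells had been exposed to compounds for 72 hours at 37 °C. Dosing followed an 11-point concentration series.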

[5] = UWB1.289-WTBRCA1 Cancer Cell Toxicity qHTS against the NCATS CANVASS Library (AID 1347354); details: UWB1.289-WTBRCA1 viability, CellTiter-Glo luminescence, 72 h
Method in brief: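 Luminescent ATP read-out (CellTiter-Glo, 15min at room temperature) measures survival after cells face an 11-point compound series for 72 hours at 37 degrees C/5% CO2.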

[6] = HPAF-II 24hr Apoptosis Induction qHTS against the NCATS CANVASS Library (AID 1347356); details: HPAF-II caspase-3/7 Caspase-Glo luminescence
Method in brief: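 Luminescent caspase-3/7 signal (DEVD substrate, Caspase-Glo) served as read-out, taken 15 min after reagent addition to HPAF-II cells exposed 24 h to compounds.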

[7] = HEK293 18hr Apoptosis Induction qHTS against the NCATS CANVASS Library (AID 1347357); details: HEK293 caspase-3/7 Caspase-Glo luminescence; series mostly up to 46.1 µM
Method in brief: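 Caspase-Glo 3/7 luminescence (15 min, room temperature) measured apoptosis after an 18-hour, 37 degrees C exposure of HEK293 cells (500 cells/well) to compounds in 11 points.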

[8] = HPAF-II 12hr Apoptosis Induction qHTS against the NCATS CANVASS Library (AID 1347358); details: HPAF-II caspase-3/7 Caspase-Glo luminescence; series mostly up to 46.1 µM
Method in brief: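 500 HPAF-II cells/well; cmpds 11-pt; 12 hr, 37 degrees C/5% CO2; Caspase-Glo 3/7 added, 15 min RT dark; luminescence read. Doxorubicin titration as control.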

[9] = HEK293 24hr Apoptosis Induction qHTS against the NCATS CANVASS Library (AID 1347359); details: HEK293 caspase-3/7 activation, Caspase-Glo luminescence
Method in brief: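 HEK293 cells (500/well, DMEM + 10% FBS) were exposed to compounds in an 11-point series for 24 hours at 37 degrees C, then caspase-3/7 activity was read by Caspase-Glo DEVD luciferase luminescence after 15 min.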

[10] = HPAF-II 18hr Apoptosis Induction qHTS against the NCATS CANVASS Library (AID 1347360); details: HPAF-II caspase-3/7 luminescence
Method in brief: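 Caspase-3/7 activation was measured with luminescent Caspase-Glo 3/7 reagent (15 min, RT) in HPAF-II cancer cells (500 cells/well). Before detection, cells had been treated for 18 h at 37 C with compounds (11 points).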

[11] = HEK293 12hr Apoptosis Induction qHTS against the NCATS CANVASS Library (AID 1347361); details: HEK293 caspase-3/7 Caspase-Glo luminescence
Method in brief: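 HEK293 cells (500/well, DMEM + 10% FBS) were exposed to natural products across an 11-point series for 12 hours at 37 degrees C. Caspase-3/7 activity was then measured with DEVD luciferase luminescence after 15 min at room temperature.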

[12] = test system: NAD(P)H diaphorase (Clostridium kluyveri); assay: Diaphorse counterscreen qHTS: Assay Interference Panel against the NCATS CANVASS Library (AID 1347362); details: Diaphorase enzyme, resazurin to resorufin fluorescence
Method in brief: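 Clostridium kluyveri diaphorase in PBS with 0.01% Tween-20 was preincubated 15 min at room temperature in the dark with compounds (11-point series). Resorufin fluorescence (ex 525/20, em 598/25) was read 5 min after adding resazurin/NADH.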

[13] = SDT Cancer Cell Toxicity qHTS against the NCATS CANVASS Library (AID 1347365); details: SDT dog glioma viability, ATP luminescence, 72 h; series mostly up to 46.1 µM; also: nearly all actives have a fitted effect of over 60% in size
Method in brief: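 qHTS, SDT dog glioma line, 500 cells/well; cpds 11 pts; 72 hr, 37C, 5% CO2; CellTiterGlo ATP luminescence.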

[14] = G06 Cancer Cell Toxicity qHTS against the NCATS CANVASS Library (AID 1347368); details: G06 dog glioma cells, viability ATP luminescence, 72 h; also: nearly all actives have a fitted effect of over 60% in size
Method in brief: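 Dog G06 glioma line, 500 cells/well; cpds pin-transferred, 11-pt; 72 hr, 37C/5% CO2; CellTiterGlo luminescence (ATP) endpoint.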

[15] = MCF7 Cancer Cell Toxicity qHTS against the NCATS CANVASS Library (AID 1347369); details: MCF7 viability, ATP luminescence (CellTiter-Glo), 72 h
Method in brief: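 Cytotoxicity was measured as CellTiterGlo luminescence (ATP) after 72 h at 37 °C. The cells were MCF7 at 500 per well, with an 11-point compound concentration series.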

[16] = qHTS for ATAD5 Antagonist screened against the NCATS CANVASS Library (AID 1347370); details: HEK293T-ATAD5-luc, 5-FUrd stimulated, luminescence, 16 h; also: nearly all actives have a fitted effect of over 65% in size
Method in brief: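 HEK293T cells with stably integrated ATAD5-luciferase reporter, 2000/well, 5 h attachment; compounds plus 10 µM 5-fluorouridine, 16 h at 37 °C. Luciferase luminescence read, with CellTiter-Fluor viability read first.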

[17] = J3T Cancer Cell Toxicity qHTS against the NCATS CANVASS Library (AID 1347371); details: J3T dog glioma viability, ATP luminescence, 72 h
Method in brief: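 Cells plated at 500 per well, compounds pin-transferred, plates incubated 72 hr at 37C, then CellTiterGlo added and luminescence read to measure ATP content.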

[18] = molecular target: Nuclear receptor subfamily 1 group I member 3 (Homo sapiens) (UniProt Q14994); assay: qHTS for Constitutive Androstane Receptor (CAR) Antagonist screened against the NCATS CANVASS Library (AID 1347372); details: HepG2-hCAR-CYP2B6 luciferase, CITCO-stimulated antagonist mode
Sequence of UniProt Q14994 (Q14994 whole entry, looked up): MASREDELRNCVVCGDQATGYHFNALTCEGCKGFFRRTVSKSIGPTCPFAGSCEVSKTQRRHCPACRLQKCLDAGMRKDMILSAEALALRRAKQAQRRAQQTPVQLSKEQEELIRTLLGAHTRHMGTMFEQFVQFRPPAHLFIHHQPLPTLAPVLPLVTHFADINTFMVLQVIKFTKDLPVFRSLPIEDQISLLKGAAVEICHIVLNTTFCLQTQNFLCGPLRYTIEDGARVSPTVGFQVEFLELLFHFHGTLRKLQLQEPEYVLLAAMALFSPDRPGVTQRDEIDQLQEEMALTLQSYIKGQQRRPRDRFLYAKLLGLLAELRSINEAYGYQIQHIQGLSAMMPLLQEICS
Method in brief: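 HepG2 cells stably carrying hCAR and a CYP2B6-2.2kb luciferase reporter were exposed to compounds plus 50 nM CITCO for 24hr at 37C. CAR activity was read by ONE-Glo luminescence, with viability measured first by CellTiter-Fluor.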

[19] = qHTS for Hypoxia signaling pathway (HIF-1) antagonists against the NCATS CANVASS Library (AID 1347374); details: HRE-bla ME-180 cells, HIF-1 beta-lactamase reporter, CoCl2; series mostly up to 38.3 µM; also: nearly all actives have a fitted effect of over 60% in size
Method in brief: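 HRE-bla ME-180 cells in medium with 0.5% dialyzed FBS received compounds (11-point series) plus CoCl2 (60 uM addition stock) for 17 hrs at 37C. Beta-lactamase activity read with CCF4 (405 nm ex, 460/530 nm em); CellTiter-Glo viability measured in same wells.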

[20] = qHTS for Hypoxia signaling pathway (HIF-1) agonists against the NCATS CANVASS Library (AID 1347375); details: HRE-bla ME-180 cells, HIF-1 beta-lactamase reporter, 17 h
Method in brief: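 ME-180 HRE-bla reporter cells; 2,000/well, 0.5% dialyzed FBS; cpd added after 5 h, 17 h 37C/5% CO2; CCF4-AM 2 h RT; FRET 460/530 nm; CellTiter-Glo viability same wells, 30 min.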
Potency is read from the fitted curve at half-maximal effect; tags tell the direction and shape of the fitted curve.

## CC(C)CC(=O)c1c(O)cc2c(c1O)C(CC(C)C)C1=C(O2)C(C)(C)C(=O)C(C)(C)C1=O (stereo not given)
[1]
  Potency: active: 18.8 µM
[2]
  Potency: active: 13.3 µM
[3]
  Potency: active: 14.9 µM
[4]
  Potency: active: 16.6 µM
[5]
  Potency: active: 18.8 µM
[6]
  Potency: inconclusive: 33.2 µM [activator, single point]
[7]
  Potency: inconclusive: 33.2 µM [activator, single point]
[8]
  Potency: inconclusive: 33.2 µM [activator, single point]
[9]
  Potency: inconclusive: 33.2 µM [activator, single point]
[10]
  Potency: inconclusive: 29.6 µM [activator, single point]
[11]
  Potency: inconclusive: 26.4 µM [activator, single point]
[12]
  Potency: inconclusive: 21.6 µM [inhibitor, partial curve]
[13]
  Potency: inconclusive: 23.5 µM [cytotoxic, single point]
[14]
  Potency: inconclusive: 33.2 µM [cytotoxic, single point]
[15]
  Potency: inconclusive: 33 µM [cytotoxic, single point]
[16]
  Potency: active: 20.9 µM
[17]
  Potency: inconclusive: 29.6 µM [cytotoxic, single point]
[18]
  Potency: inconclusive: 37.1 µM [inhibitor, single point]
[19]
  Potency: inconclusive: 10.6 µM [inhibitor, single point]
[20]
  Potency: inconclusive: 29.8 µM [activator, single point]
